Each structure is given as a SMILES string. About 2,200 (0.71%) of roughly 310,000 compounds showed an effect of 50% or more. The effect is printed as a negative number. This is one part of the list.

In the experiment the target is human ether-à-go-go-related gene (hERG) potassium channel (human, UniProt Q12809). In words: primary screen, population patch clamp on CHO cells stably expressing hERG.
Chain of human ether-à-go-go-related gene (hERG) potassium channel (Q12809 whole entry, looked up): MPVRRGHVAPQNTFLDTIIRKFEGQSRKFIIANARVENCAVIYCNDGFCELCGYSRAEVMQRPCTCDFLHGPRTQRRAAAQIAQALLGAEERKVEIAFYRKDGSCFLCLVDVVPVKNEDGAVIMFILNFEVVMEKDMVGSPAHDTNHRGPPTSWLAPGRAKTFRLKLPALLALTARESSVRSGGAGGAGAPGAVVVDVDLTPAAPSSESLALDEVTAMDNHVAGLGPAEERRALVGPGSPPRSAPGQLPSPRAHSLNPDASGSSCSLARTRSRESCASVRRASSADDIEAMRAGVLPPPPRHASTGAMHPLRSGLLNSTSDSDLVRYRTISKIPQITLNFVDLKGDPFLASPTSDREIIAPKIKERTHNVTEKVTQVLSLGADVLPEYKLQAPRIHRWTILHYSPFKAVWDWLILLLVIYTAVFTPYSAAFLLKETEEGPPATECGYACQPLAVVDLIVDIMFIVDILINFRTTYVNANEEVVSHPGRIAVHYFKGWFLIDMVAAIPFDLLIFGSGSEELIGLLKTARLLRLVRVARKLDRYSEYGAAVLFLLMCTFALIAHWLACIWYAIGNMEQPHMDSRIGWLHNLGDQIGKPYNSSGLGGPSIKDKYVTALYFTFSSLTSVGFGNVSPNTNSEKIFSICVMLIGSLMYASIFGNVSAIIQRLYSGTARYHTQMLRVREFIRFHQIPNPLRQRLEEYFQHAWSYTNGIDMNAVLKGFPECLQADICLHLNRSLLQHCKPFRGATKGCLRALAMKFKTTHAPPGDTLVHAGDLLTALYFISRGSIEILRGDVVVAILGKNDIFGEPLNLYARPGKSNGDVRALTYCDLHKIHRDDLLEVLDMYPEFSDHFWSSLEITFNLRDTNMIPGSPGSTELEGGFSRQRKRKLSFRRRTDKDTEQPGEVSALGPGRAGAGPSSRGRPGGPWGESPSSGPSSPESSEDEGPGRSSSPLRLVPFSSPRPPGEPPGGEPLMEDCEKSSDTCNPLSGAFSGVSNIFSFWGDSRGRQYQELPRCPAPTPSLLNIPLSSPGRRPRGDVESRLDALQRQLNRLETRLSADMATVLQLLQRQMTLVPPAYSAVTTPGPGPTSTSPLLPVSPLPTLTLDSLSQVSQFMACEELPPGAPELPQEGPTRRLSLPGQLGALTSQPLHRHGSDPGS
Take `O=C(O)c1ccc(NCc2ccc(Br)cc2)cc1`: the “hERG current change (%, negative = inhibition) at 1uM” value turned out to be 8.59%. Regarding `CC(=O)c1sc(NC(=O)c2ccc(Br)o2)nc1C`, the “hERG current change (%, negative = inhibition) at 1uM” value amounted to 13.5%. Next, `Cn1c(=O)c([N+](=O)[O-])c(NC2CCS(=O)(=O)C2)c2ccccc21` (stereo not shown): 9.6%; `Cc1cccc(N2C(=O)c3ccc(C(=O)Nc4cccc(C(=O)O)c4)cc3C2=O)c1`: 7.52%; `Cc1nc2ccccc2n1Cc1ccc(Cl)cc1`: 10.5%. Next, `COc1cc(NC(=O)c2cc3ccccc3o2)c(OC)cc1Br`: 3.27%; `Cc1occc1C(=O)OCC(=O)Nc1ccc(F)cc1`: 1.79%. To `O=[N+]([O-])c1ccc(Oc2ccc(S(=O)(=O)N3CCOCC3)cn2)cc1` belongs -1.03%; to `COc1ccc(-c2cc(C(F)(F)F)n3nc(C(=O)NCCCn4ccnc4)cc3n2)cc1`, 6.61%; to `CC1CCCC(NC(=O)C2CCC(CNc3c(N4CCCCC4)c(=O)c3=O)CC2)C1C` (stereo not shown), 13.1%.

In the case of `COc1cc2c(cc1OC)-c1n[nH]c(=S)n1C(C)(C)C2`, the “hERG current change (%, negative = inhibition) at 1uM” value turned out to be 13.6%. To `CCN(CCC(=O)O)c1ccccc1` belongs 8.65%.

For the molecule `CC(C)Cn1c(SC(C)C(=O)Nc2ccc(N3CCOCC3)cc2)nc2ccccc21` (stereo not shown), the “hERG current change (%, negative = inhibition) at 1uM” value stood at 2.87%. To `Cc1cc(Nc2ccc(C(=O)O)cc2)nc(N)n1` belongs 22.2%. To `CN1CCCC(OC(=O)c2cc(Br)ccc2Cl)C1.Cl` (stereo not shown) belongs -5.71%; to `Cc1nn(Cc2ccc(C(=O)NC3CCCCC3)o2)c(C)c1Br`, 4.68%. As for `O=C(Nc1ccccc1N1CCCCC1)c1ccc(F)c(S(=O)(=O)N2CCOCC2)c1`, the “hERG current change (%, negative = inhibition) at 1uM” value was found to be 5.19%.

`Cc1ccc(S(=O)(=O)C2(C(=O)N3CCCCCC3)CC2)cc1`: the “hERG current change (%, negative = inhibition) at 1uM” value was -11.3%. To `CCOC(=O)N1CCC(N2CCN(c3ccccc3)CC2)CC1.Cl` belongs 2.64%; to `CCC(C)[C@H](NC(=O)NCc1ccc(Cl)cc1)C(=O)OC` (stereo partly shown), 6.04%; to `Cc1[nH]c2ccccc2c1C(O)c1ccncc1` (stereo not shown), 14.7%. To `COc1ccc(OCC(=O)Nc2ccc(N3CCN(C(=O)c4ccco4)CC3)cc2)cc1` belongs 18.7%; to `CCOC(=O)c1c(CN2CCN(C)CC2)oc2ccc(O)cc12`, -8.05%; to `CC(C)(C)SCCNC(=O)CSc1ccccc1`, 10.5%.

Take `Cc1[nH]c(=O)[nH]c(=O)c1S(=O)(=O)NCCc1ccc(S(N)(=O)=O)cc1`: the “hERG current change (%, negative = inhibition) at 1uM” value was 13.8%. To `O=C(Cc1nc(-c2cnccn2)no1)NNC(=O)Nc1ccccc1` belongs 13.1%; to `C[C@]12CC[C@@H]3c4ccc(O)c(O)c4CC[C@H]3[C@@H]1CC[C@@H]2O`, 18.6%; to `O=C(Nc1ccc2[nH]c(=O)[nH]c2c1)c1cccc([N+](=O)[O-])c1`, 11.8%. Next, `CCc1cc2c(NCCO)ncnc2s1`: 14.1%.

Turning to `COc1ccc(C)cc1NC(=O)C1CCCCC1C(=O)O` (stereo not shown), the “hERG current change (%, negative = inhibition) at 1uM” value was found to be 3.5%. To `Cc1cccc(N2CCN(C(=O)c3ccncc3)CC2)c1C` belongs -7.13%; to `Cc1ccc(-c2cc(C(F)(F)F)n3ncc(C(=O)N4CCCCC4c4cccnc4)c3n2)cc1` (stereo not shown), 8.61%; to `Cn1c(N)c(C(=O)COC(=O)c2cc(C(F)(F)F)nc3ccccc23)c(=O)n(Cc2ccccc2)c1=O`, 16.4%.

On to `CN(CC(=O)Nc1ccccc1Br)C(=O)c1cc(S(=O)(=O)N(C)C)ccc1N1CCCC1`, for which the “hERG current change (%, negative = inhibition) at 1uM” value is 3.58%. To `COc1ccc(OCCOC(=O)CNC(=O)c2ccc(Cl)cc2Cl)cc1` belongs 10.4%; to `CC(=O)OCc1cc(-c2nc3ccccc3[nH]c2=O)nn1-c1ccc(Cl)cc1`, 9.65%. To `COc1ccc(CCNCC(O)COc2ccc(OC)cc2C(C)(C)C)cc1` (stereo not shown) belongs 12.6%.

As for `Cc1cc2nncn2c(Cc2ccccc2)n1`, the “hERG current change (%, negative = inhibition) at 1uM” value is reported as 9.56%. To `CCOc1ccc(CCNS(=O)(=O)c2cccc3nsnc23)cc1OCC` belongs -4.56%; to `CC[C@]1(c2cccc(C)c2)C(=O)N(C(=O)OC)N1C(=O)OC`, 6.95%; to `CC1CCN(C(=O)COC(=O)Cc2ccc(Br)cc2)CC1`, 4.59%. Next, `COc1cc(NC2=Nc3cccc4cccc2c34)cc(OC)c1OC`: 9.31%; `Cc1nc(NCCN2CCOCC2)c2nnn(Cc3c(F)cccc3Cl)c2n1`: 7.62%; `CN(C)CC(C)(C)CNS(=O)(=O)c1ccc(Cl)cc1.Cl`: 6.5%. Next, `COc1ccc(NC(=O)CSc2ccc3c4c(cccc24)C(=O)c2ccccc2-3)cc1`: 3.99%. Take `Cc1cccc(NC(=O)c2nc[nH]c2C(=O)NC2CCN(C(=O)OC(C)(C)C)CC2)c1`: the “hERG current change (%, negative = inhibition) at 1uM” value was found to be 17.7%.

These data come from article PMC4336329 (PLoS ONE, 2015).
